Test results as given in the supplement of paper PMC7580552.
Counter-ions that a name gives are not always drawn. Some of the results follow. Many values rest on one well or one pass, so single values are uncertain.

System: Escherichia coli W3110
Test: planktonic growth (OD600) relative to untreated control; higher = more growth
Details: 10 µM; 20-24 h; 30 °C; TB
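Further: stationary (unshaken) cultures in 96-well plates, started at OD600 0.05 from mid-exponential cells, with compounds supplied from DMSO stocks.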

SMILES | planktonic growth [%]
NCCC[C@H](N)CC(=O)N[C@H]1CNC(=O)[C@H]([C@H]2C[C@H](O)NC(N)=N2)NC(=O)/C(=C/NC(N)=O)NC(=O)[C@H](CO)NC(=O)[C@H](CO)NC1=O [Viomycin sulfate] | 84
O=c1[nH]cnc2c1ncn2[C@H]1CC[C@@H](CO)O1 [Didanosine] | 110
CN(C/C=C/C#CC(C)(C)C)Cc1cccc2ccccc12 [Terbinafine] | 101
Nc1nc(O)c2ncn(CCC(CO)CO)c2n1 [Penciclovir] | 107
Fc1ccc([C@@H]2CCNC[C@H]2COc2ccc3c(c2)OCO3)cc1 [Paroxetine Hydrochloride] | 100
CC1COc2c(N3CCN(C)CC3)c(F)cc3c(=O)c(C(=O)O)cn1c23 (stereo not drawn) [Ofloxacin] | 22
O=C(O)CCCC[C@@H]1SC[C@@H]2NC(=O)N[C@@H]21 [Biotin] | 97
COCC(=O)Nc1c(I)c(C(=O)NCC(O)CO)c(I)c(C(=O)N(C)CC(O)CO)c1I (stereo not drawn) [Iopromide] | 98
COC(=O)C1=C(C)NC(C)=C(C(=O)OC(C)C)C1c1cccc2nonc12 (stereo not drawn) [Isradipine] | 93
C[C@H](CCC(=O)O)[C@H]1CC[C@H]2[C@@H]3CC[C@@H]4C[C@H](O)CC[C@]4(C)[C@H]3CC[C@]12C [Lithocholic acid] | 93
CC(=O)SCC(Cc1ccccc1)C(=O)NCC(=O)OCc1ccccc1 (stereo not drawn) [Racecadotril] | 101
Cn1cnc([N+](=O)[O-])c1Sc1ncnc2[nH]cnc12 [Azathioprine] | 78
CC(C)C(=O)Nc1ccc([N+](=O)[O-])c(C(F)(F)F)c1 [Flutamide] | 95
COc1nc(N)nc2c1ncn2[C@@H]1O[C@H](CO)[C@@H](O)[C@@H]1O [Nelarabine] | 106
COc1ccccc1N1CCN(CCCNc2cc(=O)n(C)c(=O)n2C)CC1 [Urapidil hydrochloride] | 92
CCN(CC)Cc1cc(Nc2ccnc3cc(Cl)ccc23)ccc1O [Amodiaquin dihydrochloride dihydrate] | 100
CCC(=O)OCC(=O)[C@@]1(OC(=O)CC)[C@@H](C)C[C@H]2[C@@H]3CCC4=CC(=O)C=C[C@]4(C)[C@@]3(Cl)[C@@H](O)C[C@@]21C [Beclomethasone dipropionate] | 95
O=C(O)CN(CCN(CC(=O)O)CC(=O)O)CCN(CC(=O)O)CC(=O)O [Pentetic acid] | 96
C#CCN(C)CCCOc1ccc(Cl)cc1Cl [Clorgyline hydrochloride] | 95
CC(C)NCC(O)c1cc(O)cc(O)c1 (stereo not drawn) [Metaproterenol sulfate, orciprenaline sulfate] | 98
Cn1c(=O)c2c(ncn2CCO)n(C)c1=O [Etofylline] | 87
CNCCCN1c2ccccc2CCc2ccccc21 [Desipramine hydrochloride] | 98
O=C1OC(CN2CCOCC2)CN1/N=C/c1ccc([N+](=O)[O-])o1 (stereo not drawn) [Furaltadone hydrochloride] | 94
O=C(O)CCNC(=O)c1ccc(/N=N/c2ccc(O)c(C(=O)O)c2)cc1 [Balsalazide Sodium] | 115
Cc1cccc(Nc2ccccc2C(=O)O)c1C [Mefenamic acid] | 92

SMILES | planktonic growth [%]
CCC(C)n1ncn(-c2ccc(N3CCN(c4ccc(OCC5COC(Cn6cncn6)(c6ccc(Cl)cc6Cl)O5)cc4)CC3)cc2)c1=O (stereo not drawn) [Itraconazole] | 114
C[n+]1ccccc1/C=N/O [Pralidoxime chloride] | 100
CC1(C)S[C@@H]2[C@H](NC(=O)Cc3ccccc3)C(=O)N2[C@H]1C(=O)O [Benzathine benzylpenicillin] | 85
CC1(C)S[C@@H]2[C@H](NC(=O)Cc3ccccc3)C(=O)N2[C@H]1C(=O)O [Benzylpenicillin sodium] | 90
CCCCc1nc(Cl)c(CO)n1Cc1ccc(-c2ccccc2-c2nnn[nH]2)cc1 [Losartan] | 91
CCN(CC)CCNC(=O)COc1ccc(OC)cc1 [Mefexamide hydrochloride] | 88
Cc1nc2n(c(=O)c1CCN1CCC(c3noc4cc(F)ccc34)CC1)CCCC2O (stereo not drawn) [Paliperidone] | 93
Clc1ccc(C(Cn2ccnc2)OCc2csc3c(Cl)cccc23)c(Cl)c1 (stereo not drawn) [Sertaconazole nitrate] | 90
CC(=O)OCC1=C(C(=O)O)N2C(=O)[C@@H](NC(=O)Cc3cccs3)[C@H]2SC1 [Cephalothin sodium salt] | 56
O=C1CCC(N2C(=O)c3ccccc3C2=O)C(=O)N1 (stereo not drawn) [Thalidomide] | 95
O=C1NCCN1CCN1CCC(c2cn(-c3ccc(F)cc3)c3ccc(Cl)cc23)CC1 [Sertindole] | 115
CC(CN(C)C)C(C)(O)Cc1ccc(Cl)cc1 (stereo not drawn) [Clobutinol hydrochloride] | 103
C[C@]1(Cn2ccnn2)[C@H](C(=O)O)N2C(=O)C[C@H]2S1(=O)=O [Tazobactam] | 100
CC[C@@H](CO)NCCN[C@@H](CC)CO [Ethambutol dihydrochloride] | 94
CC(=O)OCC(=O)[C@@]1(OC(C)=O)[C@@H](C)C[C@H]2[C@@H]3C[C@H](F)C4=CC(=O)C=C[C@]4(C)[C@@]3(F)[C@@H](O)C[C@@]21C [Diflorasone Diacetate] | 95
CCCOc1ccc(C(=O)OCCN(CC)CC)cc1N [Proparacaine hydrochloride] | 99
N=C(N)NCCN1CCCCCCC1 [Guanethidine sulfate] | 101
CC(CN(C)C)CN1c2ccccc2Sc2ccccc21 (stereo not drawn) [Trimeprazine tartrate] | 104
CC1(C)[C@@H](OC(=O)CCC(=O)O)CC[C@]2(C)[C@H]3C(=O)C=C4[C@@H]5C[C@@](C)(C(=O)O)CC[C@]5(C)CC[C@@]4(C)[C@]3(C)CC[C@@H]12 [Carbenoxolone disodium salt] | 95
C=CCOC(Cn1ccnc1)c1ccc(Cl)cc1Cl (stereo not drawn) [Enilconazole] | 109
CN(C)CC/C=C1/c2ccccc2COc2ccc(CC(=O)O)cc21 [Olopatadine hydrochloride] | 98
c1ccc(CN(CC2=NCCN2)c2ccccc2)cc1 [Antazoline hydrochloride] | 91
CC(=O)N(CC(O)CN(C(C)=O)c1c(I)c(C(=O)NCC(O)CO)c(I)c(C(=O)NCC(O)CO)c1I)c1c(I)c(C(=O)NCC(O)CO)c(I)c(C(=O)NCC(O)CO)c1I (stereo not drawn) [Iodixanol] | 82
CC(C(=O)O)c1ccc(C(=O)c2ccccc2)s1 (stereo not drawn) [Tiaprofenic acid] | 91
C=CCSCC1Nc2cc(Cl)c(S(N)(=O)=O)cc2S(=O)(=O)N1 (stereo not drawn) [Althiazide] | 111

SMILES | planktonic growth [%]
CC(C)(O)c1ccccc1CC[C@@H](SCC1(CC(=O)O)CC1)c1cccc(/C=C/c2ccc3ccc(Cl)cc3n2)c1 [Montelukast] | 100
CN1Cc2c(N)cccc2C(c2ccccc2)C1 (stereo not drawn) [Nomifensine maleate] | 94
c1ccc(CNc2ncnc3nc[nH]c23)cc1 [Aminopurine, 6-benzyl] | 92
O=C(c1ccccc1)c1ccc2n1CCC2C(=O)O (stereo not drawn) [Ketorolac tromethamine] | 108
CCOC(=O)[C@@](C)(N)Cc1ccc(O)c(O)c1 [Methyldopate hydrochloride] | 99
COc1c(N2CCNC(C)C2)c(F)cc2c(=O)c(C(=O)O)cn(C3CC3)c12 (stereo not drawn) [Gatifloxacin] | 24
CO/N=C(\C(=O)N[C@@H]1C(=O)N2C(C(=O)OC(C)OC(C)=O)=C(COC(N)=O)CS[C@H]12)c1ccco1 (stereo partly drawn) [Cefuroxime axetil] | 110
COC(=O)Nc1nc2cc([S+]([O-])c3ccccc3)ccc2[nH]1 (stereo not drawn) [Oxfendazol] | 90
NC1CCN(c2nc3c(cc2F)c(=O)c(C(=O)O)cn3-c2ccc(F)cc2F)C1 (stereo not drawn) [Tosufloxacin hydrochloride] | 4
COc1ccccc1OCC(O)COC(N)=O (stereo not drawn) [Methocarbamol] | 89
Cc1cc(N)c2ccccc2[n+]1CCCCCCCCCC[n+]1c(C)cc(N)c2ccccc21 [Dequalinium dichloride] | 56
Nc1ccn([C@@H]2CS[C@H](CO)O2)c(=O)n1 [Lamivudine] | 96
CCCCN1CCCCC1C(=O)Nc1c(C)cccc1C (stereo not drawn) [Bupivacaine hydrochloride] | 93
CCOC(=O)NNc1nncc2ccccc12 [Todralazine hydrochloride] | 108
CC(C)(C)c1ccc(C(O)CCCN2CCC(C(O)(c3ccccc3)c3ccccc3)CC2)cc1 (stereo not drawn) [Terfenadine] | 84
CC(COc1ccccc1)NC(C)C(O)c1ccc(O)cc1 (stereo not drawn) [Isoxsuprine hydrochloride] | 97
COc1ccc(CC2c3cc(OC)c(OC)cc3CC[N+]2(C)CCC(=O)OCCCCCOC(=O)CC[N+]2(C)CCc3cc(OC)c(OC)cc3C2Cc2ccc(OC)c(OC)c2)cc1OC (stereo not drawn) [Atracurium besylate] | 103
CC(=O)[C@H]1CC[C@H]2[C@@H]3CC=C4C[C@@H](O)CC[C@]4(C)[C@H]3CC[C@]12C [Pregnenolone] | 91
CCN(CCO)CCCC(C)Nc1ccnc2cc(Cl)ccc12 (stereo not drawn) [Hydroxychloroquine sulfate] | 109
CCOc1ccccc1OC(c1ccccc1)C1CNCCO1 (stereo not drawn) [Reboxetine mesylate] | 100
CN(C)CCCN1c2ccccc2Sc2ccc(Cl)cc21 [Chlorpromazine hydrochloride] | 94
Nc1ccn([C@@H]2O[C@H](CO)[C@@H](O)[C@@H]2O)c(=O)n1 [Cytarabine] | 100
COc1ccnc(C[S+]([O-])c2nc3cc(OC(F)F)ccc3[nH]2)c1OC (stereo not drawn) [Pantoprazole sodium] | 93
